Patent US20260166166A1 (CURON BIOPHARMACEUTICAL SHANGHAI, published 2026)

Tests used:
[1] = target: T1, L1 cell adhesion molecule (L1CAM) on the surface of HeLa cells (human, UniProt P32004 20-1257); experiment: cell-based or functional assay
[2] = target: T1, L1 cell adhesion molecule (L1CAM) on …; experiment: flow cytometry on HeLa cells, KD from non-linear regression of MFI
Description: The anti-L1CAM ADC is diluted with complete culture medium in a 4-fold serial dilution, with 10 concentration gradient points.
HeLa cells are cultured in DMEM complete medium (Corning, 10-013-CVR) containing 10% FBS (Gibco, 10099-141) and 100 U/mL penicillin-streptomycin mixture (Thermo Fisher, 15140122). When the cell coverage in the culture container reaches 80-90%, TrypLE (Thermofisher, 12604-013) is used to digest the HeLa cells from the culture container, and they are seeded in a 96-deepwell plate at a density of 3.7×10⁴ cells/ml, with 50,000 cells (1350 μL complete medium) per well. Then, 150 μL of the ADC dilution is added to each well, mixed gently, and the 96-well plate is incubated at 4° C. for 1 hour. Then the plate is centrifuged at 1,400 rpm for 4 minutes, the supernatant is removed, and 150 μL of PBS solution (Corning, 21-040-CVC) containing 2% FBS is added to each well, centrifuged at 1,400 rpm for 4 minutes, then washed twice. Then, 50 μL of Alexa Fluor 647-labeled goat anti-human fluorescent secondary antibody (JacksonImmuno, 109-605-088) diluted at 1:800 is added to each well, and the 96-well plate is incubated at 4° C. for 0.5 hours. Cells are washed twice with PBS solution containing 2% FBS, and then resuspended in 120 μL of PBS, and the cell surface fluorescence signal is detected by using a flow cytometer (BD FACS Celesta), obtaining the median fluorescence intensity (MFI). A dose-response curve is generated, and the equilibrium dissociation constant (KD) is calculated using non-linear regression with GraphPad software.

T1 sequence (P32004 20-1257): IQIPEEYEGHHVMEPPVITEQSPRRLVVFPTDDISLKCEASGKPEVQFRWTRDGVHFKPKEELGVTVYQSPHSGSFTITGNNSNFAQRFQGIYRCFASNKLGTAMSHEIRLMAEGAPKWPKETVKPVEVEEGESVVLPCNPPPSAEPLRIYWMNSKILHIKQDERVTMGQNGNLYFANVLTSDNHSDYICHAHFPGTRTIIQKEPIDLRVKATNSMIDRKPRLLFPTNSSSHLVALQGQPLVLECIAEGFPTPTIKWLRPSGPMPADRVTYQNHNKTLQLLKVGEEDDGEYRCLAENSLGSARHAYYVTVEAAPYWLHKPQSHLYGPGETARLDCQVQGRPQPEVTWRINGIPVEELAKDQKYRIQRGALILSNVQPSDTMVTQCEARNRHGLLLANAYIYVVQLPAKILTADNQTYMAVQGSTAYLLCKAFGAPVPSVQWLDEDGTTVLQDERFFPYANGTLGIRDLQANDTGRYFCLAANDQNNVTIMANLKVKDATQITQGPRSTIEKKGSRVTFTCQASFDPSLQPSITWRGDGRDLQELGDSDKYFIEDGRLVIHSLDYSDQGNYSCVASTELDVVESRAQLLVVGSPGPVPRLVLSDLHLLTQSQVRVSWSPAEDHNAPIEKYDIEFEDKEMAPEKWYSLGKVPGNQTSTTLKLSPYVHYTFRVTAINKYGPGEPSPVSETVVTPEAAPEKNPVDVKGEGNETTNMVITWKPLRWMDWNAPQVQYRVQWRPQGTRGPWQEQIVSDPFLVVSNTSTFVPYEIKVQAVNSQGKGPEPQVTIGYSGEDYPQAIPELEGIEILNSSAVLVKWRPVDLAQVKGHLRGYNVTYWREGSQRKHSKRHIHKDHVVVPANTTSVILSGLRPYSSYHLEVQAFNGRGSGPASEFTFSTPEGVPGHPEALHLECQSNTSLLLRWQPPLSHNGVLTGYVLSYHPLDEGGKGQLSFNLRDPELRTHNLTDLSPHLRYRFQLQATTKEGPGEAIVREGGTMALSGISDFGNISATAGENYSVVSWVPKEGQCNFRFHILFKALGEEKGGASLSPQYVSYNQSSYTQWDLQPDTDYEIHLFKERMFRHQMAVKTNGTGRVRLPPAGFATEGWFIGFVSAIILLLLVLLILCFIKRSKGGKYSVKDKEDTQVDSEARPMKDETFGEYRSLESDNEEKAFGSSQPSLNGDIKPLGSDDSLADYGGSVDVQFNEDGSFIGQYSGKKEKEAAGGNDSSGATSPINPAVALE

Binder | Kd [2] [nM] | Cell killing activity of anti-L1CAM ADC (IC50 nM), HeLa, CellTiter-Glo [1] [nM]
hz26A12C1H4L3-MMAE (other, mc-vc-PABC-MMAE on free thiol groups of the TCEP-reduced antibody; positions not given, also called anti-L1CAM ADC; humanized anti-L1CAM antibody-drug conjugate) heavy: QVQLVQSGAEVKKPGSSVKVSCKASGYTFTNYWIQWVRQAPGQGLEWIGYINPSTYYSDYNQKFQGRVTLTADKSTSTAYMELSSLRSEDTAVYYCARRQFGLPLFDYWGQGTTVTVSS[human IgG1 constant region left out here] light: DIQMTQSPSSLSASVGDRVTITCRASQDVGTAVAWYQQKPGKVPKLLIYWASTLHSGVPSRFSGSGSGTDFTLTISSLQPEDVATYFCQQYSNYPLTFGGGTKVEIKRTVAAPSVFIFPPSDEQLKSGTASVVCLLNNFYPREAKVQWKVDNALQSGNSQESVTEQDSKDSTYSLSSTLTLSKADYEKHKVYACEVTHQGLSSPVTKSFNRGEC | 0.23 | 0.635
hz103E9B3H5L5-MMAE (other, mc-vc-PABC-MMAE on free thiol groups of the TCEP-reduced antibody; positions not given, also called anti-L1CAM ADC; humanized anti-L1CAM antibody-drug conjugate) heavy: EVQLVQSGAEVKKPGASVKVSCKASGYTFTSYTMHWVRQAPGQGLEWMGDINPNYGGTSYNEKFKDRVTMTTDTSTSTAYMELRSLRSDDTAVYYCAREGATGTWYFDVWGQGTTVTVSS[human IgG1 constant region left out here] light: DIQMTQSPSSLSASVGDRVTITCSASSSVSFMFWYQQKPGKAPKPLIYLTSNLASGVPSRFSGSGSGTDFTLTISSLQPEDFATYYCQQWRSNPPTFGGGTKVEIKRTVAAPSVFIFPPSDEQLKSGTASVVCLLNNFYPREAKVQWKVDNALQSGNSQESVTEQDSKDSTYSLSSTLTLSKADYEKHKVYACEVTHQGLSSPVTKSFNRGEC | 0.66 | 0.32
hz103E9B3H6L5-MMAE (other, mc-vc-PABC-MMAE on free thiol groups of the TCEP-reduced antibody; positions not given, also called anti-L1CAM ADC; humanized anti-L1CAM antibody-drug conjugate) heavy: EVQLVQSGAEVKKPGASVKVSCKASGYTFTSYTMHWVRQAPGQGLEWMGDINPNYGGTSYNEKFKDRATMTTDTSTSTAYMELRSLRSDDTAVYYCAREGATGTWYFDVWGQGTTVTVSS[human IgG1 constant region left out here] light: DIQMTQSPSSLSASVGDRVTITCSASSSVSFMFWYQQKPGKAPKPLIYLTSNLASGVPSRFSGSGSGTDFTLTISSLQPEDFATYYCQQWRSNPPTFGGGTKVEIKRTVAAPSVFIFPPSDEQLKSGTASVVCLLNNFYPREAKVQWKVDNALQSGNSQESVTEQDSKDSTYSLSSTLTLSKADYEKHKVYACEVTHQGLSSPVTKSFNRGEC | 0.6 | 0.155

Now those with a lower Kd [2], led by results:

Kd [2] [nM] | Binder | Cell killing activity of anti-L1CAM ADC (IC50 nM), HeLa, CellTiter-Glo [1] [nM]
0.11 | hz49E10H1H5L6-MMAE (other, mc-vc-PABC-MMAE on free thiol groups of the TCEP-reduced antibody; positions not given, also called anti-L1CAM ADC; humanized anti-L1CAM antibody-drug conjugate) heavy: DVQLQESGPGLVKPSQTLSLTCTVSGGSISSDYAWNWIRQPPGKGLEWMGYITYSGTTTYNPSLKSRITISRDTSKNQFSLKLSSVTAADTAVYYCARDHYGNYAYFDYWGQGTTVTVSS[human IgG1 constant region left out here] light: DIQMTQSPSSLSASVGDRVTITCRASSSVSFMHWYQQKPGKAPKPWIYASSNLVSGVPSRFSGSGSGTDFTLTISSLQPEDFATYYCQQWSSNPSTFGGGTKVEIKRTVAAPSVFIFPPSDEQLKSGTASVVCLLNNFYPREAKVQWKVDNALQSGNSQESVTEQDSKDSTYSLSSTLTLSKADYEKHKVYACEVTHQGLSSPVTKSFNRGEC | 0.061
0.097 | hz46F1D5H4L3-MMAE (other, mc-vc-PABC-MMAE on free thiol groups of the TCEP-reduced antibody; positions not given, also called anti-L1CAM ADC; humanized anti-L1CAM antibody-drug conjugate) heavy: QVQLVQSGAEVKKPGSSVKVSCKASGYTFTRYWIQWVRQAPGQGLEWMGYINPSTGYTDYNQKFQGRVTITADKSTSTAYMELSSLRSEDTAVYYCARRHLGLPLFDYWGQGTTVTVSS[human IgG1 constant region left out here] light: DIQMTQSPSSVSASVGDRVTITCRASQDVGTAVAWYQQKPGKAPKLLIYWASSLHSGVPSRFSGSGSGTDFTLTISSLQPEDFATYFCQQYSNYPLTFGGGTKVEIKRTVAAPSVFIFPPSDEQLKSGTASVVCLLNNFYPREAKVQWKVDNALQSGNSQESVTEQDSKDSTYSLSSTLTLSKADYEKHKVYACEVTHQGLSSPVTKSFNRGEC | 0.395
0.084 | hz49E10H1H5L7-MMAE (other, mc-vc-PABC-MMAE on free thiol groups of the TCEP-reduced antibody; positions not given, also called anti-L1CAM ADC; humanized anti-L1CAM antibody-drug conjugate) heavy: DVQLQESGPGLVKPSQTLSLTCTVSGGSISSDYAWNWIRQPPGKGLEWMGYITYSGTTTYNPSLKSRITISRDTSKNQFSLKLSSVTAADTAVYYCARDHYGNYAYFDYWGQGTTVTVSS[human IgG1 constant region left out here] light: QIQMTQSPSSLSASVGDRVTITCRASSSVSFMHWYQQKPGKAPKPWIYASSNLVSGVPSRFSGSGSGTDYTLTISSLQPEDFATYYCQQWSSNPSTFGGGTKVEIKRTVAAPSVFIFPPSDEQLKSGTASVVCLLNNFYPREAKVQWKVDNALQSGNSQESVTEQDSKDSTYSLSSTLTLSKADYEKHKVYACEVTHQGLSSPVTKSFNRGEC | 0.092
